# Source: the supplement of paper PMC10126150
# Sequences with one replicate were seen in a single cluster, so their values are uncertain.
# Test system: ATP
# Assay: switch fluorescence ratio, 500 uM ATP over buffer (Cy3 cluster intensity, sum of 5 cycles each) (fold (ratio)); higher = stronger signal-on switching upon ATP binding; sequences stand for … in TCGTCGGCAGCGTCAGATGTGTATAAGAGACAGTTTTTTTTTTTTTTTTTTTTTTTTT…TC
# Details: aptamer strand: ATP DNA aptamer (quencher-CACCTGGGGGAGTATTGCGGAGGAAGG + anchor), 100 nM annealed; ATP concentration: 500 uM; one replicate
# In short: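 After annealing to 100 nM quencher-labelled ATP aptamer, Cy3-labelled switching-strand clusters on a modified Illumina MiSeq flow-cell were imaged in selection buffer. A second image followed after 15 min with 500 uM ATP at 22 °C, and five such buffer/ATP cycles were done, each separated by NaOH stripping and re-annealing. The fluorescence ratio, averaged per switch-domain sequence, is summed target-cycle over summed buffer-cycle Cy3 intensity per cluster, with clusters outside 100-1000 RFU excluded.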
# 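Note: ATP exposure 15 min at 22 °C before imaging.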
sequence,measurement,value
TGATACACCG,switch fluorescence ratio,1.04
TCAGACTAAT,switch fluorescence ratio,1.02
GATAGCTTGA,switch fluorescence ratio,0.968
GATGTAAGCG,switch fluorescence ratio,1.03
TGAAGTCCGG,switch fluorescence ratio,0.989
CAGAGCGCTG,switch fluorescence ratio,1.02
TCATGTAAAG,switch fluorescence ratio,0.97
AGAAGCGTAA,switch fluorescence ratio,0.998
TGAAATACCA,switch fluorescence ratio,1.01
AATCGTGCAG,switch fluorescence ratio,0.987
TAGTATGTGA,switch fluorescence ratio,1.08
CAGTCTCAGG,switch fluorescence ratio,1.04
ATCACCACCG,switch fluorescence ratio,1.17
CATATGGTGT,switch fluorescence ratio,0.991
TCCGCCGGGT,switch fluorescence ratio,1.1
TAAAGTCGTT,switch fluorescence ratio,1.01
GTCGCAATGA,switch fluorescence ratio,4.37
GACGTGTCCA,switch fluorescence ratio,1.02
TCAATAAACT,switch fluorescence ratio,1.02
CCGTGGGATT,switch fluorescence ratio,1.01
CTTCCAAGAG,switch fluorescence ratio,1.33
AGCAGTACCA,switch fluorescence ratio,1.22
GAAAATTTCT,switch fluorescence ratio,1
TAAGAAGATA,switch fluorescence ratio,0.975
GTTCGACATA,switch fluorescence ratio,0.974
GGCTTAAGAA,switch fluorescence ratio,1.01
AGCATTCTAC,switch fluorescence ratio,2.02
CCGGCCTCCA,switch fluorescence ratio,2.57
TCTTAACGAG,switch fluorescence ratio,0.99
ACGGCTAGGT,switch fluorescence ratio,1.06
AGTTAAAATT,switch fluorescence ratio,0.953
GGGATTACAA,switch fluorescence ratio,1.03
TAAGGTTACA,switch fluorescence ratio,0.982
ACGAAAATAA,switch fluorescence ratio,1.03
CTTAGTTTCA,switch fluorescence ratio,0.977
TTCTACGTTC,switch fluorescence ratio,1.08
CGCGTATTGA,switch fluorescence ratio,1.03
TGGTTGAAGG,switch fluorescence ratio,0.978
CGTCAATGTT,switch fluorescence ratio,0.972
GATCTGAGAA,switch fluorescence ratio,0.986
CTGACTTGGA,switch fluorescence ratio,0.993
TGAAGCAGAG,switch fluorescence ratio,1.36
ACCAATGCGG,switch fluorescence ratio,1.03
CTGGTACTTC,switch fluorescence ratio,1.02
ACAAGGTTGT,switch fluorescence ratio,0.97
CTTTCCAGGT,switch fluorescence ratio,1.04
GCGAGTTATA,switch fluorescence ratio,1.01
GGGCCACCAT,switch fluorescence ratio,1.02
TATTCGTTG,switch fluorescence ratio,0.96
TGGATGTTCA,switch fluorescence ratio,1.01
CGGTAACCGA,switch fluorescence ratio,0.999
TCTGGGTCGG,switch fluorescence ratio,0.973
AGTCCTAGAG,switch fluorescence ratio,1
AGATTTCTGC,switch fluorescence ratio,0.971
GATCTTTCCT,switch fluorescence ratio,1.12
GCGCGAGTAT,switch fluorescence ratio,1.01
CAATACTATG,switch fluorescence ratio,1.04
TTATATTCAG,switch fluorescence ratio,0.974
TCGCGCCATG,switch fluorescence ratio,1.01
ATCGATCCGT,switch fluorescence ratio,1.04
GTTACAATTG,switch fluorescence ratio,1.03
AGAAGCGCC,switch fluorescence ratio,0.995
GCTACCAGAC,switch fluorescence ratio,1.72
CAGGATGACA,switch fluorescence ratio,0.996
GGAGTACATA,switch fluorescence ratio,1.01
TCGTAGTGCG,switch fluorescence ratio,1.06
TTTCTGCCAA,switch fluorescence ratio,1.04
CTGTTGCCAG,switch fluorescence ratio,0.992
GGTATCGGTG,switch fluorescence ratio,1.02
ACTTTGAGGA,switch fluorescence ratio,0.976
CGCGCCGTAC,switch fluorescence ratio,1.15
CACAGCGATT,switch fluorescence ratio,1.24
GAACCCAGA,switch fluorescence ratio,1.05
TAATCTGTCC,switch fluorescence ratio,1.73
AATATTTTAA,switch fluorescence ratio,1.01
TAAACGCAGT,switch fluorescence ratio,1.05
TCTTGCTAAA,switch fluorescence ratio,1.47
TGGGCGCGAT,switch fluorescence ratio,0.979
TTCGAGCAGT,switch fluorescence ratio,1.41
AAGTTCGCGC,switch fluorescence ratio,0.983
TAGCAAAAAT,switch fluorescence ratio,1.08
TCACCATAGC,switch fluorescence ratio,1.08
AACGAGGAGG,switch fluorescence ratio,0.94
GCAAGGGCTG,switch fluorescence ratio,0.973
TAATTAAGGG,switch fluorescence ratio,0.975
TGGTTAAACC,switch fluorescence ratio,0.984
CGAATTTAGA,switch fluorescence ratio,1.03
GCAGGGGTGA,switch fluorescence ratio,1.03
GCTTATGCAA,switch fluorescence ratio,1.02
TAAGCTGTAC,switch fluorescence ratio,3.54
ATATGACTCA,switch fluorescence ratio,1.03
GCTAGACGGT,switch fluorescence ratio,1.02
CGCCGTGGGC,switch fluorescence ratio,1.03
TACTCATTTT,switch fluorescence ratio,0.969
GGTGTGTTTC,switch fluorescence ratio,1
TGTATCTTTA,switch fluorescence ratio,0.979
AGTGCCCCCT,switch fluorescence ratio,1.02
AAATTACAGC,switch fluorescence ratio,1.02
CTTCGCAG,switch fluorescence ratio,4.32
CTTGGGGGG,switch fluorescence ratio,0.968
TTTGACAGCT,switch fluorescence ratio,0.988
CATTTTTTG,switch fluorescence ratio,1
GTCCCAATAA,switch fluorescence ratio,2.24
GAATGTAACA,switch fluorescence ratio,1.02
TTATATTTCA,switch fluorescence ratio,1.01
GAGACGGGTT,switch fluorescence ratio,1
AGCGCGTTCA,switch fluorescence ratio,0.978
ACTGCTGGGC,switch fluorescence ratio,0.989
GTAAAAGCGA,switch fluorescence ratio,1.02
GCGAAGGGAG,switch fluorescence ratio,0.981
AAGCCCCAAA,switch fluorescence ratio,1.08
GGACTACGTG,switch fluorescence ratio,1.13
TTCAAATATC,switch fluorescence ratio,1.04
GTACGAGTGT,switch fluorescence ratio,0.994
CGCGTACTCA,switch fluorescence ratio,2.33
TCTCGATTCT,switch fluorescence ratio,0.976
TAGCCGTTG,switch fluorescence ratio,1
AGGCAATAGG,switch fluorescence ratio,1.04
CTAGGGCAGT,switch fluorescence ratio,1
ATGTGGGAAA,switch fluorescence ratio,0.994
TATTGACATG,switch fluorescence ratio,1.04
ATAGTTCAG,switch fluorescence ratio,0.992
TAGACGTCAT,switch fluorescence ratio,1.03
GCATGCAGGT,switch fluorescence ratio,1.02
AAACGGGTTT,switch fluorescence ratio,0.97
GGGGTATTTA,switch fluorescence ratio,0.933
TTTACGTCTG,switch fluorescence ratio,0.983
ACGCTCGTGT,switch fluorescence ratio,1.01
ATGAGTGGTT,switch fluorescence ratio,0.987
TTAAGTCGTG,switch fluorescence ratio,0.997
GCTAATGTAT,switch fluorescence ratio,1.01
GGGATGGAGA,switch fluorescence ratio,0.994
TGATGCAACT,switch fluorescence ratio,1.06
TGGTTCAGTA,switch fluorescence ratio,0.997
TGCCTCACAC,switch fluorescence ratio,1.1
CGTGTTTCGA,switch fluorescence ratio,1.04
CTCAGGCTGT,switch fluorescence ratio,1.02
CCAACGTGAG,switch fluorescence ratio,1.08
CGCCACTAAA,switch fluorescence ratio,1.04
AACTTGAGTC,switch fluorescence ratio,0.959
CCCTTAACCT,switch fluorescence ratio,1.64
AGCAGACGTT,switch fluorescence ratio,1.01
TCGATACCTA,switch fluorescence ratio,1.05
CGTTAGACGA,switch fluorescence ratio,1
TTGGTATACC,switch fluorescence ratio,0.959
ATGTTGCCAT,switch fluorescence ratio,0.949
CTCGACCGTT,switch fluorescence ratio,0.985
AAGAACGGTG,switch fluorescence ratio,0.999
ACAATTTTTT,switch fluorescence ratio,0.997
GTATGGAACG,switch fluorescence ratio,0.983
CCCATGAGCG,switch fluorescence ratio,0.98
GGTGAGTTCC,switch fluorescence ratio,0.986
CGGCGACTCG,switch fluorescence ratio,0.984
GTTACGAAGT,switch fluorescence ratio,0.979
AATTCTATCA,switch fluorescence ratio,0.984
TAAGTTATCG,switch fluorescence ratio,0.974
TTCCCGGGTT,switch fluorescence ratio,1.09
